Reference: PubChem BioAssay AID624417 (National Center for Advancing Translational Sciences (NCATS), 2012)
Out of some 410,000 compounds screened, about 6,400 (1.6%) were called active. The inconclusive results got no clear call from the source; some entries with a clear call stand among them for comparison. Calls come from the whole dose curve; as a rule, active = well fitted inhibition curve with a large enough effect; inconclusive = small, poorly fitted or top-dose-only effect; inactive = no such curve, though single readings can be large or run the other way. No potency is given beside an inconclusive call; the fits are too rough.

Each molecule was assayed against Glucagon-like peptide 1 receptor (Homo sapiens) (UniProt P43220) (assay: qHTS of GLP-1 Receptor Inverse Agonists (Inhibition Mode)). Settings: HEK293 GLP-1R CRE-luciferase, luminescence, 24 h, GLP-1R form is constitutively active; series mostly up to 38.3 µM.
UniProt P43220, sequence (P43220 whole entry, looked up): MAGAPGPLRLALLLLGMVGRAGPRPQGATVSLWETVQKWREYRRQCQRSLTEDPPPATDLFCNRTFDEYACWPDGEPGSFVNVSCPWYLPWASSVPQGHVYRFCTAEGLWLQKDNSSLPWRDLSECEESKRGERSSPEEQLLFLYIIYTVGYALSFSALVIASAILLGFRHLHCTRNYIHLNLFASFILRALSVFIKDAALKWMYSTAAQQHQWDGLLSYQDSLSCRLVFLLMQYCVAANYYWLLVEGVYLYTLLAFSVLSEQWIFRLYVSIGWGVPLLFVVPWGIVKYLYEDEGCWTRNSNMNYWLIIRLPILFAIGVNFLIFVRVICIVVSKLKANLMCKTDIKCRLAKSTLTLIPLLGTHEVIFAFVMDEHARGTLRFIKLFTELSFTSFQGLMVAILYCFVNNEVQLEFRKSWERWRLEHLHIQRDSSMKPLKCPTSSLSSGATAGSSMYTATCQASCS
Outline: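 Seeding at 200 cells/uL, 12 h culture, 24 hr compound treatment, then luciferase reagent and a luminescence read; cells are HEK293 stably expressing a constitutively active GLP-1R plus cAMP-responsive luciferase.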
Note: nearly all actives have a fitted effect of over 55% in size.
Potency is the fitted concentration of half-maximal effect; tags give direction and shape of the fitted curve.

Structure (SMILES) | Potency
Cc1cccc(C(=O)Nc2nc3c(s2)CCCC3)c1 | inconclusive [inhibitor, single point]
Cc1ccc(S(=O)(=O)N(C)CCCC(=O)Nc2ccc(C)cc2C)cc1 | inconclusive [inhibitor, single point]
NC(=S)N/N=C/c1ccc(-c2ccc(Cl)c(Cl)c2)o1 | inconclusive [inhibitor, partial curve, poor fit]
O=C(NNc1ccc([N+](=O)[O-])cc1)C1CC1c1ccccc1 (stereo unspecified) | inconclusive [inhibitor, partial curve]
COc1ccc(-c2nc(CCNC(=O)Cc3ccc(F)cc3)cs2)cc1 | inconclusive [inhibitor, single point]
CCCCN(Cc1ccccc1)C1CCN(Cc2ccccc2)CC1 | inconclusive [inhibitor, single point]
Cc1cccc(N2CCN(C(=O)CCNS(=O)(=O)c3ccc4c(c3)CCN4C(=O)C3CC3)CC2C)c1 (stereo unspecified) | inactive
CC(C)n1cnc2c(NCc3ccccc3)cc(N[C@H](C)CO)cc21 | inconclusive [inhibitor, single point]
C/C(=N\N(Cc1ccccc1)c1ccccc1)c1cccnc1 | inconclusive [inhibitor, single point]
O=C(Nc1ccc(C(F)(F)F)cc1)c1ccc2ncsc2c1 | inconclusive [inhibitor, single point]
COc1ccc2ccccc2c1CN1CCN(Cc2ccccc2)CC1 | inactive
COc1ccccc1C=NNC(=O)NN=Cc1ccccc1OC | inconclusive [inhibitor, single point]
CC1Cc2ccccc2N1C(=O)CSc1nnnn1Cc1ccccc1 (stereo unspecified) | inconclusive [inhibitor, partial curve, poor fit]
Cc1ccc(C(=O)N2CCC(C(=O)c3ccc(F)cc3)CC2)cc1 | inconclusive [inhibitor, single point]
Cc1ccc(-c2csc(N3CCN(c4cc5c(cc4Cl)nc(-c4ccncc4)n5CCOCCO)CC3)n2)cc1 | inconclusive [inhibitor, partial curve, poor fit]
Cc1ccc(C(=O)NC2CC(C)(C)NC(C)(C)C2)cc1Cl | inconclusive [inhibitor, single point]
COc1ccc(C=C2C=C(C(C)(C)C)C(=O)C(C(C)(C)C)=C2)cc1OC | inconclusive [inhibitor, single point]
CCCn1c(CCC(=O)O)ccc1-c1ccc(OC)cc1 | inactive
CN(C)C(=O)N1CCN(S(=O)(=O)c2ccc3ccccc3c2)CC1 | inactive
N#CC(c1cccc([N+](=O)[O-])c1)C(CC(=O)c1ccccc1)c1ccccc1 (stereo unspecified) | inconclusive [inhibitor, single point]
CCc1nccn1CCC(=O)N1CCCC(N2CCN(c3ccccc3C)CC2)C1 (stereo unspecified) | inconclusive [inhibitor, partial curve]

Structure (SMILES) | Potency
O=C(NCc1ccccc1)C12CN(Cc3ccccc3)CC1C(c1ccc([N+](=O)[O-])cc1)=NO2 (stereo unspecified) | inconclusive [inhibitor, single point]
COc1cccc(CN2C(=O)C3(SCC(=O)N3c3ccc(F)cc3)c3ccccc32)c1 (stereo unspecified) | inconclusive [inhibitor, single point]
COc1ccc(C(CNC(=O)c2cc(S(=O)(=O)NCc3ccccc3)ccc2C)N2CCOCC2)cc1 (stereo unspecified) | inconclusive [inhibitor, partial curve, poor fit]
COc1ccc(C(O)CNc2ccc(C)cc2)cc1 (stereo unspecified) | inconclusive [inhibitor, single point]
Cc1ccccc1OCC(=O)NC(C)c1ccccc1 (stereo unspecified) | inconclusive [inhibitor, single point]
CN(C)S(=O)(=O)N1C(=O)c2ccccc2C1=O | inactive
Cc1ccc(CN(Cc2cccn2-c2nnc(N3CCCC3=O)s2)C(=O)Nc2cc(C)cc(C)c2)cc1 | inactive
Cc1[nH]n(-c2ccccc2)c(=O)c1/C=N/NC(=O)c1cccc(F)c1 | active: 7.94 µM
NC(c1csc(Nc2nccc(C(F)(F)F)n2)n1)C1CCCCC1 (stereo unspecified) | inconclusive [inhibitor, single point]
CN1C(=O)c2ccccc2Sc2ccc(NC(=O)NCc3ccccc3Br)cc21 | inconclusive [inhibitor, single point]
COc1cccc(C2C(C#N)=C(N)SC(c3ccccc3)C2[N+](=O)[O-])c1 (stereo unspecified) | inconclusive [inhibitor, partial curve, poor fit]
C=CC(=O)N=c1sc2ccccc2n1-c1ccccc1 | inconclusive [inhibitor, single point]
Cc1cc(C)c(S(=O)(=O)c2ccccc2C)c(N(C)C)n1 | inconclusive [inhibitor, single point]
Cc1nc2c3cc(Cl)ccc3n(CCN3CCOCC3)c2s1 | inconclusive [inhibitor, single point]
O=C(O)c1ccc2c3n(nc2c1)-c1ccc(Cl)cc1CO3 | inconclusive [inhibitor, full curve]
CN1CCC(C2(O)c3ccccc3CSc3sccc32)CC1 (stereo unspecified) | inconclusive [inhibitor, partial curve, poor fit]
CCOC(=O)c1ccc(N2C(=O)c3n[nH]c(-c4ccco4)c3C2c2cccc(F)c2)cc1 (stereo unspecified) | inconclusive [inhibitor, single point]
Cc1ccc(C2CC(C(F)(F)F)n3nc(C(=O)Nc4c(C)n(C)n(-c5ccccc5)c4=O)cc3N2)cc1 (stereo unspecified) | inconclusive [inhibitor, single point]
CCCN1CCN(CCCNC(=O)C(CC)n2nc(C)c3sc4ccccc4c3c2=O)CC1 (stereo unspecified) | inconclusive [inhibitor, partial curve]
CCOC(=O)C1(Cc2cccc(F)c2)CCN(CCCn2cccn2)CC1 | inconclusive [inhibitor, single point]
